From PMC4336329 (PLoS ONE, 2015)
About 14,000 (4.5%) of roughly 310,000 compounds showed an effect of 50% or more. The effect is printed as a negative number. The list shows a part of the results.

Each molecule was assayed against human ether-à-go-go-related gene (hERG) potassium channel (human, UniProt Q12809) (assay: primary screen, population patch clamp on CHO cells stably expressing hERG).
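Note: peak tail current of the secondary pulse compared with the same well before compound.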

human ether-à-go-go-related gene (hERG) potassium channel, sequence (Q12809 whole entry, looked up): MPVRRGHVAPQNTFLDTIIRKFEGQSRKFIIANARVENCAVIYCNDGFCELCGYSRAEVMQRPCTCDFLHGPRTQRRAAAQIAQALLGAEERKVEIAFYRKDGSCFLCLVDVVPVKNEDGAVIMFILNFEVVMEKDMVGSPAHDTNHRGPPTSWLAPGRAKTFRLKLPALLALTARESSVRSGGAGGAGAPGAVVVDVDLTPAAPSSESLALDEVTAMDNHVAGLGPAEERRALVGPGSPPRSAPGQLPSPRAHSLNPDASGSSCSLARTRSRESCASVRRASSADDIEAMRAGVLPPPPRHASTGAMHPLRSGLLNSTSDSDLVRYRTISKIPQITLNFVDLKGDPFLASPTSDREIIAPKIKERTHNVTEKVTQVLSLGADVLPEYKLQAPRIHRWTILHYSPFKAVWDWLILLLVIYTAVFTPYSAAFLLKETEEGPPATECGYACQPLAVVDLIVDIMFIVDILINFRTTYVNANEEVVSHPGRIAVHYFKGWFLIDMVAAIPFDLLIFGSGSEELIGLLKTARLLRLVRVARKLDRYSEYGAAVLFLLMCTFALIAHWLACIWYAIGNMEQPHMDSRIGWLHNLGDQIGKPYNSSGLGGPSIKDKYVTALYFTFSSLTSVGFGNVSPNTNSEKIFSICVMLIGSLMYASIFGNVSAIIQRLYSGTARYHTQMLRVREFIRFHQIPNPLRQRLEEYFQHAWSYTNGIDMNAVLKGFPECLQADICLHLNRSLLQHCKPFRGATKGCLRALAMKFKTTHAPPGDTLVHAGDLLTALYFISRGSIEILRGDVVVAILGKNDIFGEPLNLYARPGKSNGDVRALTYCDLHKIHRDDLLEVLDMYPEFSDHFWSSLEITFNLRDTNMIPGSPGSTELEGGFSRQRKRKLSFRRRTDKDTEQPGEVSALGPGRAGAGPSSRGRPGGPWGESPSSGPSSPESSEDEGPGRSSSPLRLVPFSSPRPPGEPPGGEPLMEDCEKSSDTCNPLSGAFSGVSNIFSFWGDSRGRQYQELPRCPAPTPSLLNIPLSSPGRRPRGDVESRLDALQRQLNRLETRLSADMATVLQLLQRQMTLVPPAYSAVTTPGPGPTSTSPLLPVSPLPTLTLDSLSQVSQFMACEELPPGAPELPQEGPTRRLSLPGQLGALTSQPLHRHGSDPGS

Structure (SMILES)	hERG current change (%, negative = inhibition) at 10uM
COc1ccc(NC(=O)C2C(c3ccccc3)C2(Cl)Cl)cc1 (stereo not drawn)	4.69%
Cc1cccc(C(=O)NCc2nnc3c4ccccc4c(-c4ccccc4)nn23)c1	-4.14%
CCCN1CCN(C(=O)Cn2cnc3sc(C)c(S(=O)(=O)N4CCC(C)CC4)c3c2=O)CC1	-23.1%
Cc1ccc(S(=O)(=O)NN/C(=N/S(=O)(=O)c2ccccc2)c2ccccc2)cc1	21.1%
O=C1Nc2ccccc2C1(O)c1ccccc1O (stereo not drawn)	34.6%
CC(NC(=O)COC(=O)c1cc(NS(=O)(=O)c2ccc(Cl)c([N+](=O)[O-])c2)ccc1O)C1CC2CCC1C2 (stereo not drawn)	-2.01%
COc1ccc(C2/C(=C(/O)c3ccc4c(c3)CC(C)O4)C(=O)C(=O)N2Cc2cccnc2)cc1 (stereo not drawn)	12.9%
O=C(NCc1cccs1)c1ccc(S(=O)(=O)N2CCOCC2)cc1	-9.72%
COc1cccc(C2CC(=O)NC(SC)=C2C#N)c1 (stereo not drawn)	0.0274%
Cc1ccc(NCC(=O)Nc2cccc(F)c2)cc1S(=O)(=O)N1CCCCCC1	-22.6%
CN1CCN(CC(=O)Nc2ccc([N+](=O)[O-])cc2C(=O)c2ccccc2)CC1	-84.6%
CCc1ccccc1NC(=O)NC1CC2CCC(C1)N2Cc1cccs1 (stereo not drawn)	-22.4%
CC(C)C[C@H](NC(=O)Nc1cccc(Cl)c1)C(=O)O	-0.951%
O=C1CCNCCN1[C@H](CO)c1ccccc1	16.3%
CC(C)(O[C@@H]1O[C@H](CO)[C@@H](O)[C@H](O)[C@H]1O)[C@@H]1CC=C(C(=O)O)CC1	15.5%
Cc1cc(NC(=O)c2ccc(Br)o2)ccc1NC(=O)c1ccco1	-58.2%
COc1ccc(CCNC(=O)C2CCN(C(=O)c3ccc(F)cc3)CC2)cc1	10.2%
COc1ccc(N(Cc2cc3cccc(C)c3[nH]c2=O)C(=O)C2CCCO2)cc1 (stereo not drawn)	-10.3%
O=C(CN1C(=O)NC2(CCc3ccccc32)C1=O)NCC(=O)Nc1ccc(F)cc1 (stereo not drawn)	1.09%
Cc1cc2n(n1)C(c1cn(-c3ccccc3)nc1C)Nc1ccccc1-2 (stereo not drawn)	2.74%
C=CCNC(=O)COC(=O)c1ccc(C)c(NC(=O)c2ccco2)c1	-5.01%

Structure (SMILES)	hERG current change (%, negative = inhibition) at 10uM
Cc1nc(=S)c2c([nH]1)-c1ccccc1CC21CCCCC1	10.8%
COC1=C/C(=C/c2c(N)n3nc(CC(=O)N4CCCC4)sc3nc2=O)C=CC1=O	17.2%
COc1ccccc1-n1cnnc1SCC(=O)N1CCN(S(=O)(=O)c2ccccc2)CC1	4.83%
COc1ccc(C)cc1NC(=O)c1c([N+](=O)[O-])cnn1C	12.9%
Cc1cc(C(=O)NC2CCCc3c2cnn3-c2cccc(C)c2C)no1 (stereo not drawn)	-11.8%
CCCn1nc(C(=O)N2CCc3ccccc32)c2ccccc2c1=O	-11.1%
COc1cccc(C2C(C(=O)c3ccc(C)o3)=C(O)C(=O)N2c2cc(C)on2)c1 (stereo not drawn)	-1.29%
CN=C(c1ccc(C)cc1)n1c(=S)nc(-c2ccc(C)cc2)n(C)c1=S	26%
O=C(CCN1C(=O)C2(OCCO2)c2ccccc21)c1ccccc1	4.71%
O=C(c1cc(-c2ccc(F)cc2)on1)N1CCCc2ccccc21	7.4%
COc1ccc(-c2noc(COC(=O)c3ccco3)n2)cc1OC	8.52%
COc1ccccc1N1CCN(C(=O)CCC(=O)N2CCN(c3ccc(F)cc3)CC2)CC1	-17%
Fc1ccccc1Cc1noc(CN2CCN(Cc3ccc4c(c3)OCO4)CC2)n1	-25.9%
Cc1[nH]n(-c2ccc(Cl)cc2)c(=O)c1/C=N/n1c(C)nc2ccccc2c1=O	-1.03%
CC(C)(C)c1ccc(C(=O)Nc2ccc(C(=O)NCc3cccnc3)cc2)cc1	-20.6%
CCC(C)C(NC(=O)c1ccc(Cl)cc1)C(=O)Nc1cccnc1 (stereo not drawn)	-23.9%
O=C(Nc1ccccc1C(=O)NCCc1ccc(O)cc1)c1ccco1	5.37%
CCOC(=O)c1cnn(-c2ccccc2)c1NC(=O)CN1CCOCC1	16.1%
C=CCC(C#Cc1ccccc1)[N+](C)(C)CC=C.[Br-] (stereo not drawn)	10.1%
CC(=O)Nc1ccc(NC(=O)C(C)n2nc([N+](=O)[O-])c(Br)c2C)cc1 (stereo not drawn)	8.38%
Cc1cc(S(=O)(=O)N2CCCC2)c(C)s1	-6.72%

Structure (SMILES)	hERG current change (%, negative = inhibition) at 10uM
Cc1ccc(CNC(=O)CSc2nc3[nH]ncc3c(=O)[nH]2)cc1	4.89%
COc1ccc(CCN2CC(C(=O)Nc3ccc4c(c3)OCO4)CC2=O)cc1OC (stereo not drawn)	18%
COc1cc2c(cc1OC)C1CC(=O)C(CC(C)C)CN1CC2 (stereo not drawn)	3.96%
CC(C)C[C@H](NC(=O)c1nc[nH]c1C(=O)NC1CCN(C(=O)OC(C)(C)C)CC1)C(=O)OC(C)(C)C	-10.8%
Cc1ccc(S(=O)(=O)c2nc(-c3ccccc3Br)oc2N(C)C)cc1	-14.3%
COc1ccc(Nc2nc3ccccc3nc2NS(=O)(=O)c2cccs2)cc1	10.8%
O=C(CCCn1c(=S)[nH]c2cc3c(cc2c1=O)OCO3)N1CCN(c2ncccn2)CC1	-5.36%
O=C(O)Cn1nnnc1SCC(=O)Nc1ccc(F)cc1F	4.49%
Nn1c(-c2ccco2)n[nH]c1=S	20.6%
N#Cc1c(NC(=O)CSc2ncn[nH]2)sc2c1CCCCC2	0.538%
CNS(=O)(=O)c1cc(-c2nnc(Nc3ccc(CC(N)=O)cc3)c3ccccc23)ccc1C	7.68%
Cc1c(C)n(CCCN(C)C)c2ncnc(Nc3ccc(F)cc3)c12	-50.8%
CC1=CC(C)(C)N2C(=O)C3(C(C#N)=C(N)OC4=C3C(=O)CC(C)(C)C4)c3c(C)c(C)cc1c32 (stereo not drawn)	-9.96%
COCCCNC(=O)Cc1ccc(-n2c(C)nc3cccnc32)cc1	14.8%
CC(C)N(CCCNC(=O)C1CCN(S(=O)(=O)N2CCOCC2)CC1)Cc1ccccc1	3.35%
Cc1[nH]c(=O)c(C#N)cc1-c1ccccc1	-7.98%
COC(=O)c1cc(NC(=O)c2c(Cl)cnn2C)cc(C(=O)OC)c1	-2.32%
Cc1cc(C)c[n+](-c2nc3ccccc3nc2[N-]S(=O)(=O)c2cccs2)c1	-3.11%
O=C(NCc1ccc(F)cc1)C(c1ccncc1)N(C(=O)c1csnn1)C1CC1 (stereo not drawn)	-18.8%
Cc1c(Cl)cccc1NC(=O)Cn1nnc(C(=O)NCc2cccs2)c1N	10%
COc1ccc(-c2c[n+](CC(=O)c3ccccc3)c3n2CCCCC3)cc1.[Br-]	11.7%

Structure (SMILES)	hERG current change (%, negative = inhibition) at 10uM
COC(=O)c1cc(NC(=O)C2COc3ccccc3O2)ccc1Cl (stereo not drawn)	-18.8%
CC(CC(=O)N1CCc2ccccc21)S(=O)(=O)c1ccc2c(c1)NC(=O)CO2 (stereo not drawn)	0.235%
O=C(O)C1CCN(c2ccc(S(=O)(=O)N3CCOCC3)cc2[N+](=O)[O-])CC1	5.34%
O=C(O)c1cc(-c2cccs2)nn1-c1ccccc1	11.7%
CCC(C)NC(=O)C(Cc1ccccc1)NS(=O)(=O)c1ccc2c(c1)oc(=O)n2C (stereo not drawn)	22.1%
O=C(CN1CCN(Cc2ccccc2)CC1)N1N=CCC1c1ccccc1 (stereo not drawn)	-1.06%
COc1ccc(Cc2nnc(NC(=O)Cn3cnc4c3c(=O)n(C)c(=O)n4C)s2)cc1OC	24.4%
CC(=O)Nc1ccc(S(=O)(=O)c2c(N)n(CCN3CCOCC3)c3nc4ccccc4nc23)cc1	-3.81%
Cc1cc2c(c(=O)n1Cc1ccc3c(c1)OCO3)C(c1cccnc1)C(C#N)=C(N)O2 (stereo not drawn)	5.36%
Cc1ccc(CSc2ncnc3c2cnn3Cc2ccccc2)cc1C	-4.1%
CC(=O)CSc1nc(-c2ccccc2)c(-c2ccccc2)o1	10%
Cl.O=C(Nc1cc(S(=O)(=O)N2CCCCC2)ccc1O)c1ccccc1NS(=O)(=O)c1ccc(F)cc1	3.57%
CN(CC(=O)Nc1ccccc1Br)C(=O)COc1ccc2ccccc2c1	1.04%
CC(C)Cn1c(-c2nn(C)cc2Cl)n[nH]c1=S	17.1%
Cc1ccc(NCc2nnc(SCC(=O)N3CCc4ccccc43)n2C)cc1	-13.4%
Cn1c(Cn2c(=O)sc3ccccc32)nnc1SCc1ccccn1	-31%
C=C[C@H]1CN2CC[C@H]1C[C@H]2[C@H](O)c1ccnc2ccccc12	-34%
COc1ccc2cc(C(=O)Nc3c(C)n(C)n(-c4ccccc4)c3=O)sc(=O)c2c1OC	8.86%
CCOC(=O)C1(Cc2ccccc2)CCN(Cc2cccc(OC)c2O)CC1	-69.6%
COCC(=O)Nc1cc(C(=O)Nc2cccc(C)c2C)ccc1Cl	-0.776%
CCOC(=O)N1CCN(C(=O)CS(=O)(=O)c2cn(Cc3ccc(F)cc3)c3ccccc23)CC1	-26.2%
